# Source: ChEMBL document CHEMBL4888484, “Replenishing the malaria drug discovery pipeline: Screening and hit evaluation of the MMV Hit Generation Library 1 (HGL1) against asexual blood stage Plasmodium falciparum ,using a nano luciferase reporter read-out” (2022)
# The campaign covered roughly 150,000 compounds. About 540 (0.36%) showed an effect of 50% or more. The list shows a part of the results.
# Tested on: Plasmodium falciparum
# Test: Primary screen in NF54 nanoGlo assay, in single point, at 2uM, 72h; a lower Z score goes with more inhibition
# Format: functional, Erythrocyte
# Settings: timepoint 72 hour
SMILES,% Inhibition [%],Z score,% Inhibition (2 µM) [%]
O=C(NCCc1ncc[nH]1)c1ccc2c(Br)cccc2c1,-12,1.52,–
Cc1cc(C(=O)N[C@@H](CO)c2sccc2C)cc(C)n1,-3,0.51,–
CC(CNC(=O)N1CCOC(C)C1)CN(C)C(=O)OC(C)(C)C (configuration not stated),-12,1.25,–
O=C(Cc1cccs1)N[C@H]1CCc2ccccc21,3,-0.46,–
COC(=O)[C@@H]1C[C@H](O)CCN1C(=O)c1c(C)cccc1OC,-12,2.04,–
COc1cccc(CC(C)(C)NS(=O)(=O)CC2(C#N)CC2)c1,-8,0.77,–
Cc1cccc(Oc2nc3ccccc3nc2N2CCCCCC2)c1C,-8,0.96,–
NC(=O)c1ccc(N2CCN(C(=O)C[C@H]3CCc4ccccc4C3)CC2)cc1,-2,0.22,–
Cc1cccc(C(=O)N[C@H]2CCO[C@H](c3ccccn3)C2)c1C,-4,0.55,–
Cc1cnc(COc2cc(Br)cc(F)c2F)o1,-8,0.84,–
CCn1ccc(C(=O)N2CCN(Cc3ccco3)[C@@H]3CS(=O)(=O)C[C@@H]32)n1,-24,2.4,–
Cc1ccc(-c2nc(CC[C@H]3CCCO3)n(CC(F)(F)F)n2)o1,-10,1.88,–
COc1ccc(C(=O)N2CC(F)(F)C[C@H]2COc2ccc3c(c2)CCC3)cn1,-6,1.05,–
CCc1nccn1[C@H]1CCCN(c2cccc(C(=O)O)n2)C1,-5,0.96,–
O=C(Nc1nnc(-c2ccoc2)[nH]1)c1ncccc1Br,-2,0.22,–
CCCN(CC(C)(C)O)S(=O)(=O)C1CC1,0,-0.07,–
CC1CCN([C@H](NC(=O)c2ccco2)C(=O)c2ccccc2)CC1,-13,2.02,–
CCC(CC)C(=O)N1CCC(NC(=O)Nc2ccc(OC)c(N3CCCC3=O)c2)CC1,-15,1.5,–
COc1ccccc1CC(=O)NCc1ccccc1CN1CCC(C)CC1,-2,0.36,–
Cc1ccc(NC(=O)C[C@@H]2NC(=O)NC2=O)cc1OCC(F)F,-12,2.22,–
O=C(c1ccc(Br)o1)N1CC(S(=O)(=O)Cc2ccco2)C1,-23,2.96,–
COc1ccc2c(c1)N1CCN(CC(=O)N3CCOCC3)CC1C(C(=O)N1CCN(C(C)=O)CC1)C2 (configuration not stated),-1,0.14,–
c1cc(CN2CCN(C3CCCCCC3)CC2)ccn1,–,–,-11
CC(C)n1ccc(CN2C(=O)N[C@@H](Cc3cc(Cl)cc(Cl)c3)C2=O)n1,-5,0.62,–
Cc1cccc2nc(NC[C@]3(c4nccn4C)NC(=O)NC3=O)oc12,-1,0.08,–
O=C(Nc1ccon1)c1cc(-c2ccccc2Cl)nc2ccccc12,3,-0.39,–
Cc1ccccc1C1CC(NC[C@](C)(O)CN2CCOCC2)C1 (some centres not stated),-8,1.19,–

SMILES,% Inhibition [%],Z score,% Inhibition (2 µM) [%]
CC(C)[C@H]1CCO[C@H]1C(=O)NCc1cn(C)nc1C(F)(F)F,-7,0.76,–
Cc1c(O)cccc1C(=O)NCCCCN1CCCCCC1,5,-0.67,–
c1nc2c(cc1-c1nc([C@H]3CCOC3)no1)CCCC2,-7,0.95,–
O=C(NCc1nc(-c2ccc[nH]c2=O)no1)c1ccno1,-15,2.62,–
O=C(Nc1ccccc1N1CCCC1)C1CCN(S(=O)(=O)c2ccc(Cl)cc2)CC1,3,-0.25,–
O=S(=O)(Cc1ccccc1)Nc1ccnn1Cc1cccnc1,-5,0.5,–
Cc1nsc2ncc(C(=O)N3CCC(C)CC3)c(N3CCC(C(=O)Nc4cc(F)ccc4F)CC3)c12,60,-4.06,–
Cc1noc(C)c1CCC(=O)NC1CC(O)C(CO)C1 (configuration not stated),-10,1.51,–
CC[C@H](C)NC(=O)Cc1cccc(N)c1,9,-1.64,–
CCOc1ccc(-c2nc(CN3C(=O)c4ccccc4CS3(=O)=O)cs2)cc1OC,-10,1.36,–
COc1ccc(N2C(=O)CN(C(=O)c3ccccc3)CC23CCCC3)cc1,9,-1.3,–
COc1ccc(CN2CC[C@@]3(CCCN(C4CCCCC4)C3=O)C2)cc1O,-7,1.12,–
O=C(c1ccoc1)N1CCC(S(=O)(=O)N2CCCCC2)CC1,-14,1.49,–
CCC(=O)NCCNC(=O)c1ccco1,35,-0.69,–
CC(C)CCNC(=O)c1c(OCC2CC2)cc(=O)n2c1CCOCC2,-7,0.87,–
Cc1cc(C)nc(CNC(=O)Nc2cc(S(C)(=O)=O)ccc2C)n1,1,-0.11,–
Cc1ccccc1C1(CNC(=O)N(C)Cc2ccccc2O)CCOCC1,0,0.04,–
CCCn1cc(S(=O)(=O)NCCc2noc(C(C)C)n2)cn1,-4,0.81,–
CCC(=O)Nc1ccc(N2CCN(C(=O)c3cccc(F)c3)CC2)c(C(=O)N2CCCCC2)c1,-5,0.5,–
CCc1cccc(-n2nnnc2N2CCN(C(=O)Nc3cccc(Br)c3)CC2)c1,-4,0.64,–
CC(C)Cn1c(C[C@H]2CCN(C(=O)C(C)(C)C)C2)nc2cccnc21,-13,1.62,–
Cc1cccc(NC(=O)CN(C)Cc2cc(Cl)cc3c2OCOC3)c1C,6,-0.83,–
CC(C)Cn1cc(NC(=O)N2Cc3ccccc3N(C)C[C@@H]2C)c(C(F)F)n1,-1,0.09,–
COc1ccc(CC(=O)N2CCN(c3nc4c(s3)c(C)nn4-c3ccc(OC)cc3)CC2)cc1,13,-2.36,–
O=C(CN1CCCCCC1)N1CC=C(n2c(=O)[nH]c3ccccc32)CC1,-4,0.56,–
CCC(C)(C)NC(=O)Cn1c(C)ccc(NS(=O)(=O)c2ccc(C)cc2)c1=O,-4,0.69,–
Cc1c(C(=O)NCCc2cnn(-c3ccccc3)c2)oc2c1C(=O)CC(C)(C)C2,-15,2.81,–
